Reference: the supplement of paper PMC7125110
± gives the standard error. Variants at the background level are over-represented here.

B1: glmS ribozyme (parent)
chain: AUAAAAGCGCCAGAACUACAGAAAUGUAGUUGACGAGGAGGAGGUUUAUCGAAUUUUCGGCGGAUGCCUCCAAA

Legend:
Settings in all cases: with glucosamine-6-phosphate
glucosamine-6-phosphate [1] = variants of: B1; assay: self-cleavage kobs at 160 uM GlcN6P; higher = faster cleavage; RNA array
In short: (§1)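 The measurements used barcoded ribozyme variants on sequenced MiSeq chips, transcribed in situ by E. coli RNA polymerase and tracked at 37 °C with a hybridised Cy3 probe. Glucosamine-6-phosphate, 40 μM to 10 mM in HEPES/KCl/Mg(OAc)2 buffer, was flowed in while tiles were imaged over ~14 h. Baseline-normalised signals, also normalised to non-cleaving reference variants, gave per-tile medians that were fit to one- or two-exponential decays for kobs. kcat and KM resulted from weighted Michaelis–Menten fits across concentrations.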

glucosamine-6-phosphate [2] = variants of: B1; assay: self-cleavage kobs at 2500 uM GlcN6P; higher = faster cleavage; RNA array
In short: as §1

glucosamine-6-phosphate [3] = variants of: B1; assay: self-cleavage kobs at 640 uM GlcN6P; higher = faster cleavage; RNA array
In short: as §1

glucosamine-6-phosphate [4] = variants of: B1; assay: self-cleavage kobs at 10000 uM GlcN6P; higher = faster cleavage; RNA array
In short: as §1

Variant | self-cleavage kobs at 160 uM GlcN6P (glucosamine-6-phosphate [1]) [s⁻¹] | self-cleavage kobs at 2500 uM GlcN6P (glucosamine-6-phosphate [2]) [s⁻¹] | self-cleavage kobs at 640 uM GlcN6P (glucosamine-6-phosphate [3]) [s⁻¹] | self-cleavage kobs at 10000 uM GlcN6P (glucosamine-6-phosphate [4]) [s⁻¹]
G7C A12C C16A A48U | < 1e-05 | < 1e-05 |  | 
G9U C34U G66U | < 1e-05 |  |  | 
C50G G51A G59U C70G | 9.16e-05 ± 3.2e-05 | 7.99e-05 ± 2e-05 | 0.000132 ± 2.9e-05 | 
G51A A53G |  |  | < 1e-05 | 
A6G C8G U31A G32U | < 1e-05 |  |  | 
C50G C58U C61U |  |  | 0.000479 ± 0.00011 | 
G7U U31C | < 1e-05 | < 1e-05 |  | < 1e-05
C50U U55C U65C |  |  | < 1e-05 | 
A6U A39U U45A A52C | < 1e-05 |  |  | 
A6U C10G A36C | < 1e-05 | < 1e-05 |  | 
G7C G29A U30A C71U | < 1e-05 | < 1e-05 |  | 
G9U G40A G66A C71A | < 1e-05 |  |  | 
G7U A12C G41A | < 1e-05 | < 1e-05 |  | 
U49G U56A |  | 0.000173 ± 4.1e-05 | 0.000105 ± 1.9e-05 | 0.000466 ± 9.5e-05
U55G G62C | < 1e-05 | < 1e-05 | < 1e-05 | < 1e-05
C58U C70A |  |  | 3.84e-05 ± 1.4e-05 | 
C8A A36C A42C G66C C67A | < 1e-05 | < 1e-05 |  | 
A6U G41U | < 1e-05 |  |  | 
U55A U56A |  | 0.00346 ± 0.0013 | 0.00306 ± 0.00092 | 
G7U A12G U45C U46G C71U | < 1e-05 | < 1e-05 |  | 
U49G G62A |  |  | < 1e-05 | < 1e-05
A6C G40U C61A | < 1e-05 | < 1e-05 |  | < 1e-05
G66U U69G |  | 4.9e-05 ± 2.2e-05 | 5.52e-05 ± 2.5e-05 | 

Variant | self-cleavage kobs at 160 uM GlcN6P (glucosamine-6-phosphate [1]) [s⁻¹] | self-cleavage kobs at 2500 uM GlcN6P (glucosamine-6-phosphate [2]) [s⁻¹] | self-cleavage kobs at 640 uM GlcN6P (glucosamine-6-phosphate [3]) [s⁻¹] | self-cleavage kobs at 10000 uM GlcN6P (glucosamine-6-phosphate [4]) [s⁻¹]
G7A G9A A14G U55G | < 1e-05 |  |  | 
A6C A53U C70U | < 1e-05 |  |  | 
G7C U49A C70A | < 1e-05 | < 1e-05 |  | 
G7A C8U A64U C70G | < 1e-05 | < 1e-05 |  | 
A6G A12C C67U | < 1e-05 |  |  | 
U49C U55C |  | < 1e-05 | < 1e-05 | 
G60U G62A C67U |  |  | < 1e-05 | 
A53C G66U | 3.36e-05 ± 1.5e-05 | 0.000344 ± 8.3e-05 | 0.000128 ± 3.6e-05 | 0.00039 ± 7.6e-05
C8U A33G G62A G63U | < 1e-05 |  |  | 
U49G G62U A64C | < 1e-05 | < 1e-05 | < 1e-05 | < 1e-05
C8G U31C G43U | < 1e-05 |  |  | < 1e-05
C8G U46A | < 1e-05 | < 1e-05 |  | < 1e-05
U55C C71A |  | 0.000174 ± 1.9e-05 | 5.32e-05 ± 6.9e-06 | 0.000283 ± 2.2e-05
U55G G66C C70U |  | 0.000343 ± 8.7e-05 | 0.000456 ± 0.0001 | 
G62C C67G U69A |  |  | < 1e-05 | 
G62C C67G U69G |  |  | < 1e-05 | 
C8U G35U G62C C71U | < 1e-05 |  |  | 
G9C U30G U45A | < 1e-05 |  |  | 
U49C G62U C71G | < 1e-05 | < 1e-05 | < 1e-05 | 
A6U U45G | < 1e-05 |  |  | 4.41e-05 ± 9.1e-06
C58A C70U | 3.94e-05 ± 9.4e-06 | 0.000143 ± 1.3e-05 | 6.79e-05 ± 8.4e-06 | 0.000145 ± 1.7e-05
A53C U55C | 0.00015 ± 4e-05 | 0.00148 ± 0.00029 | 0.00052 ± 9.2e-05 | 0.00116 ± 0.00017
U57G C67A U69G |  |  | 4.87e-05 ± 2.3e-05 | 

Variant | self-cleavage kobs at 160 uM GlcN6P (glucosamine-6-phosphate [1]) [s⁻¹] | self-cleavage kobs at 2500 uM GlcN6P (glucosamine-6-phosphate [2]) [s⁻¹] | self-cleavage kobs at 640 uM GlcN6P (glucosamine-6-phosphate [3]) [s⁻¹] | self-cleavage kobs at 10000 uM GlcN6P (glucosamine-6-phosphate [4]) [s⁻¹]
G62A G63A | < 1e-05 |  | < 1e-05 | 
G9C A33C | < 1e-05 | < 1e-05 |  | < 1e-05
C50U G51C | < 1e-05 | < 1e-05 | < 1e-05 | 
C8U C50G G63U | 0.000108 ± 2.8e-05 | 5.35e-05 ± 2.6e-05 |  | 
C50A C61G C68G |  |  | 6.76e-05 ± 1.9e-05 | 2.92e-05 ± 1.3e-05
G9A A48G G51A G63A | < 1e-05 | < 1e-05 |  | 
G51U A52U U65G | < 1e-05 | < 1e-05 | < 1e-05 | 
G7U G63U | < 1e-05 | < 1e-05 |  | < 1e-05
G51U C61G C71G | 0.000101 ± 2.2e-05 |  | 0.000494 ± 0.00014 | 
C8A U55C C61G | < 1e-05 | < 1e-05 |  | 
C8U G35U G44A | < 1e-05 |  |  | 
G63A U65G |  | < 1e-05 | < 1e-05 | < 1e-05
G7C A33C A36G | < 1e-05 | < 1e-05 |  | 
G51C G59A | < 1e-05 | < 1e-05 | < 1e-05 | 
U49A G62A C67G |  |  | < 1e-05 | 
C50G G63A A64U | 0.000145 ± 4.6e-05 |  | 0.000136 ± 4.5e-05 | 
C61U C67U | < 1e-05 |  | < 1e-05 | 
A6G A36U | < 1e-05 | < 1e-05 |  | < 1e-05
A6G A36C | < 1e-05 | < 1e-05 |  | < 1e-05
A6G G43U G60U | < 1e-05 |  |  | 
G62U C68U |  |  | < 1e-05 | 
U49G A64U C67A |  | < 1e-05 | < 1e-05 | 
G51C G63C C68G |  | < 1e-05 | < 1e-05 | 

Variant | self-cleavage kobs at 160 uM GlcN6P (glucosamine-6-phosphate [1]) [s⁻¹] | self-cleavage kobs at 2500 uM GlcN6P (glucosamine-6-phosphate [2]) [s⁻¹] | self-cleavage kobs at 640 uM GlcN6P (glucosamine-6-phosphate [3]) [s⁻¹] | self-cleavage kobs at 10000 uM GlcN6P (glucosamine-6-phosphate [4]) [s⁻¹]
A53U C58G C68U |  |  | 9.02e-05 ± 3.1e-05 | 
G60U C71A |  | < 1e-05 | < 1e-05 | < 1e-05
U57G C68A |  |  | 3.37e-05 ± 1.4e-05 | 
G51U U56A G63U |  | < 1e-05 | < 1e-05 | 
C58G G62A G63C C71A |  |  | 5.92e-05 ± 2.4e-05 | 
G7A G29A A48U G60C G63A | < 1e-05 | < 1e-05 |  | 
G9A A33C U49C C68U | < 1e-05 |  |  | 
A6C A36C A48U | < 1e-05 |  |  | 
U54A C61G C71G |  | 0.000139 ± 4.6e-05 | 7.31e-05 ± 1.7e-05 | 
A52G U55G | 8.73e-05 ± 8.7e-06 |  | 0.000252 ± 2.5e-05 | 
A6G A36U G41C A64G | < 1e-05 | < 1e-05 |  | < 1e-05
G9U A33C C67G | < 1e-05 | < 1e-05 |  | 
U57C G59A |  | < 1e-05 | < 1e-05 | < 1e-05
A52G G63U |  |  | < 1e-05 | 
U54C C71G | 0.000132 ± 5.7e-05 | 0.000351 ± 0.00011 | 0.000424 ± 0.00013 | 0.00091 ± 0.00016
G60U G66U | < 1e-05 |  | < 1e-05 | < 1e-05
U57G C61A G62C A64U |  | < 1e-05 | < 1e-05 | < 1e-05
U49G C50G G51A |  |  | < 1e-05 | 
G7C C11U A14G A39U C50U A53G C68A C70A | < 1e-05 |  |  | 
G9U U55A | < 1e-05 | < 1e-05 |  | < 1e-05
U56C G60U C70G |  | < 1e-05 | < 1e-05 | < 1e-05
C8U A36U G40C U56A | < 1e-05 | < 1e-05 |  | 
C8G C50A | < 1e-05 | < 1e-05 |  | < 1e-05

Variant | self-cleavage kobs at 160 uM GlcN6P (glucosamine-6-phosphate [1]) [s⁻¹] | self-cleavage kobs at 2500 uM GlcN6P (glucosamine-6-phosphate [2]) [s⁻¹] | self-cleavage kobs at 640 uM GlcN6P (glucosamine-6-phosphate [3]) [s⁻¹] | self-cleavage kobs at 10000 uM GlcN6P (glucosamine-6-phosphate [4]) [s⁻¹]
U55C G62U | < 1e-05 | < 1e-05 | < 1e-05 | < 1e-05
A64U C67U C70U |  |  | < 1e-05 | 
A6C G32U G41U U65A | < 1e-05 | < 1e-05 |  | 
G51C C58U | < 1e-05 |  | < 1e-05 | < 1e-05
C50G U57G G66U C70G |  | 0.000139 ± 4.9e-05 | 0.000982 ± 0.0003 | 
A6C C10A A39C | < 1e-05 | < 1e-05 |  | 
G7A U54G | < 1e-05 |  |  | 4.41e-05 ± 1.5e-05
G63U U65A | < 1e-05 | < 1e-05 | < 1e-05 | < 1e-05
C8A G32C U54C | < 1e-05 |  |  | 
A6C C16U G35A | < 1e-05 | < 1e-05 |  | 
G60A G62A |  |  | < 1e-05 | 
U49A A64U |  |  | < 1e-05 | < 1e-05
G9U C16U G32A A64U | < 1e-05 |  |  | 
A52U U56G |  | 5.36e-05 ± 9.7e-06 | 2.83e-05 ± 1.1e-05 | 0.000122 ± 2.5e-05
C8G C16A C50U G66A | < 1e-05 |  |  | < 1e-05
G7C U56C G63C C71U | < 1e-05 |  |  | 
G62A C67G | < 1e-05 | < 1e-05 | < 1e-05 | 
G9A C34U G37U A52U G60U | < 1e-05 | < 1e-05 |  | 
A6U G37C C71U | < 1e-05 |  |  | 
C50G G60C C70A |  | 5.41e-05 ± 2.7e-05 | 0.000161 ± 5.8e-05 | 
A48U U55C |  |  | 0.000116 ± 2.5e-05 | 
U49C A64C | < 1e-05 | < 1e-05 | < 1e-05 | 
